The whole screen tested about 310,000 compounds, of which about 14,000 (4.5%) showed an effect of 50% or more. Effects have a minus sign here. The list shows a part of the results.

This is an account of results in article PMC4336329 (PLoS ONE, 2015).
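Also: peak tail current of the secondary pulse compared with the same well before compound.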

Chain of human ether-à-go-go-related gene (hERG) potassium channel (Q12809 whole entry, looked up): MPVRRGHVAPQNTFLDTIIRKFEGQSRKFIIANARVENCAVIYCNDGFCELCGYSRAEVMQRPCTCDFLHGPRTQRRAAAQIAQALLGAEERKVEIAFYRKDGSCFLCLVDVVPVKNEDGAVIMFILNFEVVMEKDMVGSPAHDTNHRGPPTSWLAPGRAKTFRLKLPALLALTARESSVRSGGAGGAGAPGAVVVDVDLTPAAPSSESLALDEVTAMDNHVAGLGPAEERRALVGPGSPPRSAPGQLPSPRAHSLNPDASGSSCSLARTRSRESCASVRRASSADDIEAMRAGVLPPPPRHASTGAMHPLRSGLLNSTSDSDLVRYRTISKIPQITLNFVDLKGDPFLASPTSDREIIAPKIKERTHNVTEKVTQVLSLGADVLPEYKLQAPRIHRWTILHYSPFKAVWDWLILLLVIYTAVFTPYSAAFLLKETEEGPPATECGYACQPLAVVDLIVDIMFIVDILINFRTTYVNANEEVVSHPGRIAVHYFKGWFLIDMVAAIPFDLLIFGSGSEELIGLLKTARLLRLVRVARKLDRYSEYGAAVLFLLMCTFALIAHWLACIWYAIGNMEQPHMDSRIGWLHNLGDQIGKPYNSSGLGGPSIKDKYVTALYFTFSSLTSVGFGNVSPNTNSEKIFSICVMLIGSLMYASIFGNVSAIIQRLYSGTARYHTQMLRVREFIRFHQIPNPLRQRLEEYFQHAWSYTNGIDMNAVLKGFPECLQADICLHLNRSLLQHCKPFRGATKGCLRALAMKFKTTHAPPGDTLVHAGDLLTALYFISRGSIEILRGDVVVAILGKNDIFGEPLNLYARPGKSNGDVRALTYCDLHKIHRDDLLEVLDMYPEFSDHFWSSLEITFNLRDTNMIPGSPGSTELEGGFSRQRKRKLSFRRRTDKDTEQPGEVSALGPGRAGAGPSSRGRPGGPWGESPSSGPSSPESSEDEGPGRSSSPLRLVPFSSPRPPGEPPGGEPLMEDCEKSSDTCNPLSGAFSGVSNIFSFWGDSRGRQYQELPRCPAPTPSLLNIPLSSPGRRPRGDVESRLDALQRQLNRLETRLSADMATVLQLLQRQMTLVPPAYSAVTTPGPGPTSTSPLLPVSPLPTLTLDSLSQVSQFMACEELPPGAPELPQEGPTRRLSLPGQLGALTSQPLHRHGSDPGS

This test addresses human ether-à-go-go-related gene (hERG) potassium channel (human, UniProt Q12809). As to the kind of experiment: primary screen, population patch clamp on CHO cells stably expressing hERG.
`N#Cc1c2c(c(Nc3ccc(O)cc3)n3c1nc1ccccc13)CCC2`: the “hERG current change (%, negative = inhibition) at 10uM” value is listed as 5.51%. Consider `COC(=O)C1=C(c2cccc(OCc3ccccc3)c2)C[C@@H]2CC[C@H]1N2C(=O)NCc1ccc(OC)cc1`, for which the “hERG current change (%, negative = inhibition) at 10uM” value was found to be 9.68%. On to `NC(=O)c1ccc(NC(=O)CN2CCN(C(=O)c3ccco3)CC2)cc1`, for which the “hERG current change (%, negative = inhibition) at 10uM” value was -3.09%. To `COC(=O)COc1ccc2oc(=O)cc(-c3cc4ccccc4o3)c2c1` belongs 10.9%. In the case of `COc1ccc(CN(C)C(=O)CCc2ccc(S(=O)(=O)N3CCCCCC3)cc2)c(OC)c1`, the “hERG current change (%, negative = inhibition) at 10uM” value is -29.8%. In the case of `CCOc1ccc2nc(N(CCN(C)C)C(=O)c3cc4ccccc4cc3OC)sc2c1.Cl`, the “hERG current change (%, negative = inhibition) at 10uM” value was found to be 1.72%. To `COc1ccc(OC)c(N2C(=O)CC(C(C)c3ccccc3)C2=O)c1` (centres unmarked) belongs 7.28%; to `CC12CN(C(=O)c3cccc([N+](=O)[O-])c3)C3(C#N)CC1CCC23C` (centres unmarked), 5.65%. Turning to `CCN(CC(=O)Nc1ccc2c(c1)OCCO2)S(=O)(=O)c1ccccc1`, the “hERG current change (%, negative = inhibition) at 10uM” value is 16.1%. To `CCOC(=O)CN1CC23C=CC(O2)C(C(=O)NC2CCCCCC2)C3C1=O` (centres unmarked) belongs -10.3%. To `Cc1nccn1CC(O)COc1ccccc1` (centres unmarked) belongs -0.412%. To `Cc1ccc2c(=O)c(C(=O)c3ccc(F)cc3)cn(CC(=O)NCc3ccco3)c2n1` belongs -5.4%; to `O=C(c1cccc(OC(F)F)c1)N1CCN(c2ncccn2)CC1`, -12.5%. On to `Nc1nc(Nc2ccccc2F)nc(N2CCOCC2)c1[N+](=O)[O-]`, for which the “hERG current change (%, negative = inhibition) at 10uM” value is listed as 4.6%. As to `Cc1ccc2oc(C(=O)NCC3CCOCC3)c(C)c2c1`, the “hERG current change (%, negative = inhibition) at 10uM” value was 8.07%.

`COc1cc(C2C(C#N)=C(N)N(Nc3ccccc3)C3=C2C(=O)CC(C)(C)C3)ccc1OCc1cccc(F)c1` (centres unmarked): the “hERG current change (%, negative = inhibition) at 10uM” value is recorded as 18.6%. The result for `Cc1ccc(S(=O)(=O)N2CCOCC2)cc1C(=O)NC(=S)N1CC(C)OC(C)C1` (centres unmarked) reads 9.57%; that for `CCC(=O)Nc1ccccc1C(=O)C(=O)Nc1ccccc1`, 9.67%. On to `CCOC(=O)c1cccc(NC(=O)CS(=O)(=O)Cc2nc(-c3cccc(OC)c3)oc2C)c1`, for which the “hERG current change (%, negative = inhibition) at 10uM” value was -28%. As for `O=C1OCc2cc(NC(=O)C3CCCCC3)ccc21`, the “hERG current change (%, negative = inhibition) at 10uM” value worked out at 13.3%. `COc1cccc(-c2nc(NCc3ccco3)c3ccccc3n2)c1O`: the “hERG current change (%, negative = inhibition) at 10uM” value amounted to 1.44%.

As for `Cc1ccc(-c2nn(Cc3ccccc3)cc2C(=O)O)cc1`, the “hERG current change (%, negative = inhibition) at 10uM” value is 21.7%.

Regarding `O=C(N/C(=C/c1ccccc1F)C(=O)N1CCCCC1)c1ccccc1`, the “hERG current change (%, negative = inhibition) at 10uM” value was 10.1%.
